# The campaign covered roughly 310,000 compounds. About 14,000 (4.5%) showed an effect of 50% or more. The effect is printed as a negative number. The list shows a part of the results.
# Target: human ether-à-go-go-related gene (hERG) potassium channel (human, UniProt Q12809)
# Assay: primary screen, population patch clamp on CHO cells stably expressing hERG
# 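Further: peak tail current of the secondary pulse compared with the same well before compound.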
# human ether-à-go-go-related gene (hERG) potassium channel, sequence (Q12809 whole entry, looked up): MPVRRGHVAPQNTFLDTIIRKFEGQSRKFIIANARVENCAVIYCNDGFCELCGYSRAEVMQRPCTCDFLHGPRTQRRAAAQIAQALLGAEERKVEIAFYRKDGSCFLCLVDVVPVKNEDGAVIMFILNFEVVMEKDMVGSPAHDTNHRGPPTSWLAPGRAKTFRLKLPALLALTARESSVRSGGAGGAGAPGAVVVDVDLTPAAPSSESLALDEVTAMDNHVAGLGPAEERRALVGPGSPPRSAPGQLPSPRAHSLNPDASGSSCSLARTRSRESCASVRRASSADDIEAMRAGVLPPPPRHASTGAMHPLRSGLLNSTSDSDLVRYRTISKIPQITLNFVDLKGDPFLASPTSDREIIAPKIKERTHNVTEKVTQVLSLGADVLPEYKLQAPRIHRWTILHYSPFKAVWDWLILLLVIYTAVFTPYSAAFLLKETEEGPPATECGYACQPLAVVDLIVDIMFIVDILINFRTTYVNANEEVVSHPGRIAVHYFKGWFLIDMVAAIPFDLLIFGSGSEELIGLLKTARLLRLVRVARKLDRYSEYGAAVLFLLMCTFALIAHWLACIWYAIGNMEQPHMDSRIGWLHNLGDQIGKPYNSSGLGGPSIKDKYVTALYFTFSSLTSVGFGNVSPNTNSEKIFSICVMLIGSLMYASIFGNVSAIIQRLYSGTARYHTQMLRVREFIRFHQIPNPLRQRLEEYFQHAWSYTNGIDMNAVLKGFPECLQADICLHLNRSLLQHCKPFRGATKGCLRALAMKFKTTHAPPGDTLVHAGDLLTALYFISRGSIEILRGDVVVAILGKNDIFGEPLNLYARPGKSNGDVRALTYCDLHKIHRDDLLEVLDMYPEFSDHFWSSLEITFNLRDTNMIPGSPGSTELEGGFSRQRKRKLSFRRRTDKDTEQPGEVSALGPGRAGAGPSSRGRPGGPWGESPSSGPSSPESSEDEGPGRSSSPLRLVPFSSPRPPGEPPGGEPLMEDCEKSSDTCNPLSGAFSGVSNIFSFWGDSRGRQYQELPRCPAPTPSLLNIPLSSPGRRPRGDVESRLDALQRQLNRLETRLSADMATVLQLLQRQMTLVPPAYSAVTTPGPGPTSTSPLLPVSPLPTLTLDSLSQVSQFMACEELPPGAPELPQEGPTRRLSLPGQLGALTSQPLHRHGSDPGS
row,SMILES,"hERG current change (%, negative = inhibition) at 10uM"
1,COc1ccc(NC(=O)CN(c2ccc(C(C)C)cc2)S(=O)(=O)c2c(C)noc2C)cc1OC,13.1%
2,Cc1oc(-c2cccc(Cl)c2)nc1CN1CCC(C(=O)NCCCN2CCCC2=O)CC1,-38%
3,COc1cccc(NC(=O)CCP(C)(=O)O)c1,1.72%
4,CCOCc1nnc(NC(=O)CCS(=O)(=O)Cc2ccccc2)s1,11.8%
5,CCCOc1ccc2oc(=O)c3c(c2c1)CCCN3C(=O)CN(C)Cc1ccccc1,-29.7%
6,Cc1onc(-c2ccccc2Cl)c1C(=O)Nc1nnc(-c2cccc([N+](=O)[O-])c2)s1,17.2%
7,O=C(COc1coc(CN2CCc3ccccc3C2)cc1=O)Nc1cccc(F)c1,1.64%
8,O=C(Cn1cnc2scc(-c3ccccc3)c2c1=O)NCc1ccco1,-24.9%
9,CC1(C)CC2(CCO1)NCCN1C(=O)CSC12 (stereo not drawn),5.9%
10,Cc1ccc(SC2=C(Sc3ccc(C)cc3)C(=O)c3ccccc3C2=O)cc1,15.1%
11,O=C(CNC(=O)c1ccco1)Nc1ccc2c(c1)OCCO2,4.06%
12,CCOc1cc(C=O)ccc1OCC(=O)N1CCCC1,12.6%
13,O=C(/C=C/c1ccc(F)cc1)N1CCCc2ccccc21,-62.7%
14,Cc1ccc(-c2nc3ccccc3nc2Cl)cc1,16.4%
15,CC(Oc1cccc2c1OC(C)(C)C2)C(=O)O (stereo not drawn),-5.47%
16,O=C(CSc1nc2ccccc2c(=O)n1CCCC(=O)N1CCCC1)NCc1ccco1,-62.4%
17,COc1ccccc1/C=C(/NC(=O)c1ccccc1)C(=O)NCCCn1ccnc1,2.6%
18,COc1cccc2cc(C(=O)N(Cc3cccs3)CC3CCCO3)c(=O)oc12 (stereo not drawn),10.8%
19,Cc1cccc(Nc2ccc(C(=O)O)cc2[N+](=O)[O-])c1C,16.3%

row,SMILES,"hERG current change (%, negative = inhibition) at 10uM"
1,O=C(Cn1[nH]c(=O)c2ccccc2c1=O)Nc1cccnc1,10.2%
2,O=C(NNC(=S)Nc1ccccc1)Nc1ccccc1,6.9%
3,CCOc1ccc(NS(=O)(=O)c2c(C)nc3sccn3c2=O)cc1,-14.6%
4,COc1cc(C(=O)Nc2nc(-c3cccs3)cs2)cc(OC)c1OC,18.7%
5,Nc1c(C(=O)Nc2ccc(Cl)c(Cl)c2)sc2nc(-c3cccnc3)ccc12,-7.28%
6,Cc1ccc(O)c(-c2cc(-c3ccc(F)cc3)no2)c1,2.11%
7,c1ccc(-c2noc(CSc3nnnn3-c3ccccc3)n2)cc1,-15%
8,Cc1ccccc1Cn1nc(C)c(NC(=O)c2noc3c2CCc2ccccc2-3)c1C,17.3%
9,O=C1Oc2ccccc2C(=O)/C1=C\N1CCN(c2ccccc2)CC1,2.32%
10,Cc1ccc(CSc2nc3[nH]ncc3c(=O)[nH]2)cc1,4.08%
11,Cc1cc(NC(=O)c2ccccc2)cc(NC(=O)c2ccccc2)c1C,17.2%
12,O=C(CNS(=O)(=O)c1ccccc1)N/N=C/c1ccccc1[N+](=O)[O-],9.17%
13,CC(Oc1ccc2c(=O)c(-c3ccc(Cl)cc3)c(C(F)(F)F)oc2c1)C(=O)O (stereo not drawn),-0.765%
14,O=C(CCN1c2ccccc2Sc2ccccc21)OCC(=O)N1CCN(C(=O)c2ccco2)CC1,-66%
15,CCN(CC)CCC(=O)N1c2ccccc2Sc2ccc(Cl)cc21.Cl,-42.7%
16,c1ccc(-c2noc(-c3ccc4ccccc4c3)n2)cc1,11.9%
17,CCOC(=O)c1c(CSc2ccccc2)n(C)c2ccc(O)cc12,21.3%
18,CCCCC1(CO)C(=O)N(c2ccccc2)N(c2ccccc2)C1=O,15.4%
19,O=C(NCC1CCCO1)c1ccc(Br)s1 (stereo not drawn),8.71%

row,SMILES,"hERG current change (%, negative = inhibition) at 10uM"
1,O=C(Cc1ccc2c(c1)OCCO2)N1CCN(S(=O)(=O)c2cccc(Cl)c2Cl)CC1,-6.55%
2,CCN(Cc1ccccc1)C(c1ccccn1)c1nnnn1C(C)(C)CC (stereo not drawn),-12.1%
3,COCCc1ncc(CN2CCC(C(=O)Nc3ccc(-n4cccn4)cc3)CC2)cn1,6.84%
4,CCOC(=O)C1=C(Cn2ccc(C(F)(F)F)n2)NC(=O)NC1c1ccc2c(c1)OCO2 (stereo not drawn),-14.7%
5,Cc1ccc(C)c(/C=C(\C(=O)O)c2ccc(S(=O)(=O)N3CCCCC3)s2)c1,8.44%
6,CCOc1ccc(NC(=O)Cn2sc3nc(C)cc(C)c3c2=O)cc1,4.94%
7,COc1ccccc1NC(=O)COc1ccc(C(F)(F)F)cc1[N+](=O)[O-],0.204%
8,CCCOc1c(OC)cccc1C1CC(=O)Nc2cc3c(cc21)OCO3 (stereo not drawn),-5.12%
9,Cc1c(Cc2ccccc2)c(=O)n2c([nH]c3ccccc32)c1C#N,-1.13%
10,Cc1cc2cc(C)c3nnc(SCC(=O)N4CCCc5ccccc54)n3c2cc1C,-12.3%
11,CC1C(=O)CC(c2ccc([N+](=O)[O-])cc2)NC1c1ccc([N+](=O)[O-])cc1.Cl (stereo not drawn),-69.7%
12,CCOc1ccc(Nc2nc3ccccc3n2C)cc1,-13.5%
13,Cc1ccc(C)c(Nc2nc3nonc3nc2N2CCOCC2)c1,1.04%
14,CCCCCc1ccc(OCCC[n+]2ccccc2)c(CCCCC)c1.[Cl-],-75.7%
15,O=C(O)c1ccc(S(=O)(=O)NCC2CCCO2)cc1 (stereo not drawn),2.36%
16,CCN(CC)P(=O)(Oc1ccccc1)Oc1ccccc1,-7.77%
17,Cn1c(N)c(Br)c(-c2ccc(F)cc2)c(C#N)c1=O,7.23%
18,O=C(Cn1ccc([N+](=O)[O-])n1)N1CCCCCC1,11.3%
19,N#CC1=C(N)C(C#N)(C#N)C(c2cccnc2)C2CCCC=C12 (stereo not drawn),-17.8%

# Source: publication PMC4336329 (PLoS ONE, 2015)
